Source: article PMC4336329 (PLoS ONE, 2015)
Hit rate of the full screen: of about 310,000 compounds, about 14,000 (4.5%) showed an effect of 50% or more. Effects have a minus sign here. Some of the results follow.

Target: human ether-à-go-go-related gene (hERG) potassium channel (human, UniProt Q12809)
Experiment: primary screen, population patch clamp on CHO cells stably expressing hERG
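Also: peak tail current of the secondary pulse compared with the same well before compound.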

Chain of human ether-à-go-go-related gene (hERG) potassium channel (Q12809 whole entry, looked up): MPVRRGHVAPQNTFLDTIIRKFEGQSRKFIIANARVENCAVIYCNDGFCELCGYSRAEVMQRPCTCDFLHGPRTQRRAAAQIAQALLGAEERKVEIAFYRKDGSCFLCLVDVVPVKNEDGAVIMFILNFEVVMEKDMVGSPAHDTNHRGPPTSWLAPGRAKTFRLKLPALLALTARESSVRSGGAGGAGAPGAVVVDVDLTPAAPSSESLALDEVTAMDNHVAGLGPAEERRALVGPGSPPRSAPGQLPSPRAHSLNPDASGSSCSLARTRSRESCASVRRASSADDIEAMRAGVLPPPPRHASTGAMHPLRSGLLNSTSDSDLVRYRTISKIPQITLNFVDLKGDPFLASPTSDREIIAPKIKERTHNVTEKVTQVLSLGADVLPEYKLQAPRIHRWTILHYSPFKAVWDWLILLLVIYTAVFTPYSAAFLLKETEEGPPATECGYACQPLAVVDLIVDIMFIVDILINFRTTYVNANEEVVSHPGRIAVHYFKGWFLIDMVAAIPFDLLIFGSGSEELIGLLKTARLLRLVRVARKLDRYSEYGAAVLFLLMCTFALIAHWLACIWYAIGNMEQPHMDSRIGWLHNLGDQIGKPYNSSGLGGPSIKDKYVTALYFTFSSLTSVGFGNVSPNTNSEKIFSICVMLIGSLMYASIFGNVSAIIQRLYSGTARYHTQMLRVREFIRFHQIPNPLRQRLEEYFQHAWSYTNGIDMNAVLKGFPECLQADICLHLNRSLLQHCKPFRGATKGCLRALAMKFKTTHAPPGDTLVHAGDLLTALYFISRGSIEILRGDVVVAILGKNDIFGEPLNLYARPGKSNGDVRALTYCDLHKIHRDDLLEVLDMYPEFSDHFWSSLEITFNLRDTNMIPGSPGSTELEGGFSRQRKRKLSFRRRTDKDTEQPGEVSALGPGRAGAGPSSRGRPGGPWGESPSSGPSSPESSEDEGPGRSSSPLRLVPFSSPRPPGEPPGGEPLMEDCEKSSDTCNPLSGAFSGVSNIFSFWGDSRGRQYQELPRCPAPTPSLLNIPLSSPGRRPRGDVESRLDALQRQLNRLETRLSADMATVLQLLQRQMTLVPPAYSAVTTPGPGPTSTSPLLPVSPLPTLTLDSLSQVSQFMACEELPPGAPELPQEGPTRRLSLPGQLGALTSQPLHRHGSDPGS

SMILES	hERG current change (%, negative = inhibition) at 10uM
Cn1c(CNC(=O)C2CCCCC2)cc2ccccc21	17%
CC1CC(C)CN(S(=O)(=O)c2ccc3c(c2)CCN3C(=O)CCC(=O)O)C1 (centres unmarked)	18.4%
Nc1nc2ccccc2n1C(=O)c1ccccc1	-15.2%
COc1cccc(-n2c(SCC(N)=O)nnc2-c2ccco2)c1	13.7%
O=C(O)Cc1c(C(=O)O)[nH]c2ccc(C(=O)O)cc12	12.2%
FC(F)(F)c1cc(-c2ccccc2)nc(NCc2cccs2)n1	-2.52%
Cc1ccc(CNC(=O)c2ccc(Cl)c(S(=O)(=O)N3CCCCC3)c2)cc1	-27.3%
CCC(C)N(C(=O)COC(=O)CN=C1NS(=O)(=O)c2ccccc21)C1CCS(=O)(=O)C1 (centres unmarked)	1.69%
COc1cc(OC)c(OC)cc1CCC(C)NC(=O)Cc1ccccc1 (centres unmarked)	5.68%
CNC(=O)NC(=O)CSc1nnc(C(F)(F)F)n1C	7.84%
CC(Oc1ccc(F)cc1)C(=O)Nc1cc(S(=O)(=O)N2CCOCC2)ccc1N1CCN(C)CC1 (centres unmarked)	-29.9%
O=C(Nc1ccccc1F)Nc1cc(S(=O)(=O)N2CCOCC2)ccc1N1CCCC1	-19%
O=C1c2ccncc2C(=O)N1Cc1cccc(Cl)c1	-4.02%
COc1ccccc1C(=O)NC(CCSC)C(=O)OCC(=O)c1ccc[nH]1 (centres unmarked)	-28.9%
COc1cccc(N2CCN(CC(=O)Nc3ccccc3C(=O)NCc3ccccc3)CC2)c1	-60.9%
COc1ccc(NC(=O)C2=C(C)Nc3ncnn3C2c2ccccc2C(F)(F)F)c(OC)c1 (centres unmarked)	2.77%
Cl.O=C(OCCN1CCOCC1)c1ccc(Cl)cc1Cl	-0.913%
O=C(NCCS(=O)(=O)N1CCN(c2ccccc2F)CC1)c1ccco1	-16.5%
Cn1nnnc1SCC(=O)c1c(N)n(C)c(=O)n(C)c1=O	18.3%

SMILES	hERG current change (%, negative = inhibition) at 10uM
Clc1ccc(-n2ncc3c(NCc4cccnc4)ncnc32)cc1Cl	14.6%
COc1cccc(C2C3=C(CCCC3=O)NC3=C2C(=O)c2ccccc23)c1 (centres unmarked)	3.81%
CCOC(=O)c1[nH]c2ccc(F)cc2c1NC(=O)CN1CCc2cc(OC)c(OC)cc2C1	-0.0862%
O=C(c1cccc(Cl)c1)N1CCCC(C(=O)N2CCN(c3ccccc3)CC2)C1 (centres unmarked)	-49.6%
C=CCSc1nc2ccccc2n1Cc1nnc(-c2cccs2)o1	-48.5%
CCC(C)[C@H](NC(=O)NCc1ccc(Cl)cc1)C(=O)O (some centres unmarked)	-26.8%
O=C(NCc1ccccc1)C(c1ccncc1)N(C(=O)c1csnn1)C1CC1 (centres unmarked)	1.3%
CN(CC(=O)Nc1ccc(F)c(F)c1F)C(=O)C1CCN(C(=O)Nc2ccccc2)CC1	-19.6%
COc1cc(OC)c2ccc(=O)oc2c1C(CCN1CCCC(C)C1)c1ccc(N(C)C)cc1 (centres unmarked)	-10.6%
O=C(Oc1ccc(-c2nnco2)cc1)c1ccc(Br)o1	18.3%
O=C(CCN1C(=O)/C(=C\c2ccccc2Cl)SC1=S)Nc1cccnc1	15.1%
Nc1ncc(Br)cc1S(=O)(=O)NCCC(=O)NCc1ccc(F)cc1	-20.6%
COc1ccc(C)cc1NC(=O)c1nn(C)cc1Br	6.17%
Cc1cccc(CN2C(=O)c3ccccc3Sc3ccc(C(=O)O)cc32)c1	24.1%
O=S(=O)(Nc1cc(C(F)(F)F)ccc1N1CCOCC1)c1ccccc1	4.09%
COC(=O)NC1(C(F)(F)F)NC(=O)N(C2CCCCC2)C1=O (centres unmarked)	3.7%
C/C(=N\n1c(C)nc2ccccc2c1=O)c1ccc(N)cc1	17.1%
CCOc1ccc(NC(=O)Cn2nnc(C(=O)NCc3ccc(OC)cc3)c2N)cc1	6.1%
O=C(NCCS(=O)(=O)N1CCc2ccccc2C1)c1ccccc1	-23%

SMILES	hERG current change (%, negative = inhibition) at 10uM
CC(C)(C)OC(=O)CNC(=O)c1[nH]cnc1C(=O)N[C@@H](Cc1ccccc1)C(=O)OC(C)(C)C	-0.913%
CC(C)(C)C1=C(C#N)C(c2cccnc2)C(C#N)=C(N)O1 (centres unmarked)	4.42%
S=C(Nc1ccc(Oc2ccccc2)cc1)N(CCCN1CCOCC1)Cc1ccccn1	-70%
C=CCn1c(COc2ccc(OC)cc2)nnc1SC(C)C(=O)NC1CC1 (centres unmarked)	-11.6%
CCOc1cc(/C=N/N=C/c2ccc(O)c(OCC)c2)ccc1O	9.33%
O=c1c(N2CCOCC2)nsnc1N1CCOCC1	1.94%
CNC(=O)CCCc1nc(-c2ccccc2Cl)no1	21.1%
CC1Oc2ccccc2OC1C(=O)Nc1ccccn1 (centres unmarked)	6.71%
O=C(CSc1nnc(NC(=O)Cc2ccccc2)s1)NCc1ccco1	5.42%
CN(C)CC(C)(C)CNC(=S)NCc1ccc2c(c1)OCO2	-2.88%
O=C(O)c1cccc(S(=O)(=O)Nc2ccc(OCc3ccccc3)cc2)c1	23.6%
COc1cc2[nH]c(=O)n(CCCCCC(=O)N3CCN(c4ccccc4)CC3)c(=O)c2cc1OC	-18.6%
CCOC(=O)N1CCC(NS(=O)(=O)c2ccc3c(c2)C(C)(C)C(=O)N3C)CC1	11.3%
COCC(C)(C)COS(N)(=O)=O	3.52%
C=Cc1ccc2c(c1)N(C)C(=C)S2.I	19.7%
O=C(Cn1cc([N+](=O)[O-])cn1)Nc1ccc(Cn2cc(Br)cn2)cc1	-36.9%
C=C(C)c1cccc(C(C)(C)NC(=O)N2CCOCC2)c1	-1.87%
O=C(N/N=C/c1ccccn1)c1ccc(NC(=O)c2cccc([N+](=O)[O-])c2)cc1	11.8%
